For the test, the system named is baker's yeast (Saccharomyces cerevisiae). The test is classed as cell-based. Particulars: 6 h fermentation (FIG. 4). The method, then: The pH of the sugarcane bagass and spruce hydrolysates were adjusted to 5.5 with a 5 M solution of sodium hydroxide. The conditioning of each hydrolysate was performed in eight 100-mL glass vessels equipped with magnetic stirrer bars. 26 mL hydrolysate was added to all vessels, and the vessels were placed on a magnetic stirrer plate (IKA-Werke, Staufen, Germany). Sodium dithionite (chemical grade; >87%, Merck, Darmstadt, Germany) was added to hydrolysates in the concentrations 5 and 10 mM. Additions of sodium sulphite to 5 and 10 mM were also performed. The additions were made at room temperature (23° C.) and the samples were kept for 10 min with stirring. The experiments were performed in duplicates.
The efficiency of the additions of the reducing agents was compared with alkali detoxification.
Ethanol measurements were performed by using an enzymatic kit (Ethanol UV-method, Boehringer Mannheim GmbH, Mannheim, Germany). Fermentation experiments were performed to evaluate the effectiveness of the additions and treatments. For comparison, untreated hydrolysates were included in the fermentation experiments as well as reference fermentations of sugar-based medium with an amount of fermentable sugars (i.e. glucose and mannose) corresponding to that in the hydrolysate samples. The fermentations were carried out using baker's yeast (Saccharomyces cerevisiae) (Jastbolaget AB, Rotebro, Sweden). […]

As to `O=S([O-])S(=O)[O-].[Na+].[Na+]` [Dithionite, Sodium dithionite], the “Ethanol production from sugarcane bagass hydrolysate” value was “high ethanol production”. To `O=S([O-])[O-].[Na+].[Na+]` [Sulphite, sodium sulphite] belongs “high ethanol production”.

Source of the values: patent US8795997B2 (priority 2009, dated 2014).
